The values that follow come from publication PMC12820563.

Some of the results follow. The list includes weakly bound sequences.

The target in the experiment is T1, MBP-FoxP3dN (UniProt Q99JB6).
T1 sequence: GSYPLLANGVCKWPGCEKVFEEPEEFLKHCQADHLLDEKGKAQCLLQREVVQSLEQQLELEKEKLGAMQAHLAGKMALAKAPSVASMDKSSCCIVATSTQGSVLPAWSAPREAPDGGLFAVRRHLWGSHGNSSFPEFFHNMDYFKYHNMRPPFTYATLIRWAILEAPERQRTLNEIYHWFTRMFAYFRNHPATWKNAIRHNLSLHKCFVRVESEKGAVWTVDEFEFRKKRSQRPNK
Briefly: PD-seq (MBP pull-down with sequencing). The settings on record: 20 mM Tris-HCl pH 7.5, 100 mM NaCl, 1.5 mM MgCl2, 0.4 uM protein, 0.1 uM dsDNA library, 30 min, room temperature, amylose pull-down; high values mean tight binding; double strand, one strand shown.
As for “GATGATTGTTCTCCCAGCTGATGAATTATTGCTCTCGAGTAAACAAATTTTCCTAATCTTTCTGTTCAAGCGCCATCTAC”, the binding signal (RPM ratio (pull-down/input)) was 0.744. With “GATGATTGTTCTCCCAGCTGATGAATTTGATTGCTCGAGTAAACAAATTTTCCTAATCTTTCTGTTCAAGCGCCATCTAC”, the binding signal (RPM ratio (pull-down/input)) amounted to 5.45. Next, “GATGATTGTTCTCCCAGCTGATGAATTATGAGCCTCGAGTAAACAAATTTTCCTAATCTTTCTGTTCAAGCGCCATCTAC”: 0.672.

With “GATGATTGTTCTCCCAGCTGATGAATTAGCGACGTCGAGTAAACAAATTTTCCTAATCTTTCTGTTCAAGCGCCATCTAC”, the binding signal (RPM ratio (pull-down/input)) amounted to 0.415. Next, “GATGATTGTTCTCCCAGCTGATGAATTGGTCGTATCGAGTAAACAAATTTTCCTAATCTTTCTGTTCAAGCGCCATCTAC”: 0.775; “GATGATTGTTCTCCCAGCTGATGAATTTGAGGCTTCGAGTAAACAAATTTTCCTAATCTTTCTGTTCAAGCGCCATCTAC”: 0.585. Next, “GATGATTGTTCTCCCAGCTGATGAATTGGACAATTCGAGTAAACAAATTTTCCTAATCTTTCTGTTCAAGCGCCATCTAC”: 0.333; “GATGATTGTTCTCCCAGCTGATGAATTAATGAATTCGAGTAAACAAATTTTCCTAATCTTTCTGTTCAAGCGCCATCTAC”: 0.682; “GATGATTGTTCTCCCAGCTGATGAATTGCTTAGATCGAGTAAACAAATTTTCCTAATCTTTCTGTTCAAGCGCCATCTAC”: 0.962.

As to “GATGATTGTTCTCCCAGCTGATGAATTATCTCGGTCGAGTAAACAAATTTTCCTAATCTTTCTGTTCAAGCGCCATCTAC”, the binding signal (RPM ratio (pull-down/input)) was found to be 0.195. Next, “GATGATTGTTCTCCCAGCTGATGAATTAAGTCGCTCGAGTAAACAAATTTTCCTAATCTTTCTGTTCAAGCGCCATCTAC”: 0.441. The figure for “GATGATTGTTCTCCCAGCTGATGAATTACAACTCTCGAGTAAACAAATTTTCCTAATCTTTCTGTTCAAGCGCCATCTAC” is 0.948; for “GATGATTGTTCTCCCAGCTGATGAATTTTGGCACTCGAGTAAACAAATTTTCCTAATCTTTCTGTTCAAGCGCCATCTAC” it is 0.628; for “GATGATTGTTCTCCCAGCTGATGAATTAGGCCTCTCGAGTAAACAAATTTTCCTAATCTTTCTGTTCAAGCGCCATCTAC” it is 5.5.

For “GATGATTGTTCTCCCAGCTGATGAATTAGATGGGTCGAGTAAACAAATTTTCCTAATCTTTCTGTTCAAGCGCCATCTAC”, the binding signal (RPM ratio (pull-down/input)) amounted to 0.816.

“GATGATTGTTCTCCCAGCTGATGAATTGATAGACTCGAGTAAACAAATTTTCCTAATCTTTCTGTTCAAGCGCCATCTAC”: the binding signal (RPM ratio (pull-down/input)) is 0.417.

Consider “GATGATTGTTCTCCCAGCTGATGAATTGAGGTGATCGAGTAAACAAATTTTCCTAATCTTTCTGTTCAAGCGCCATCTAC”, for which the binding signal (RPM ratio (pull-down/input)) was 0.496. For the sequence “GATGATTGTTCTCCCAGCTGATGAATTTACATAATCGAGTAAACAAATTTTCCTAATCTTTCTGTTCAAGCGCCATCTAC”, the binding signal (RPM ratio (pull-down/input)) was 0.884.
